Results taken from article PMC6919601, “Identification of Plasmodium dipeptidyl aminopeptidase allosteric inhibitors by high throughput screening” (PLoS ONE, 2019).
Hit rate of the full screen: of about 110,000 compounds, about 230 (0.21%) showed an effect of 50% or more. The list shows a part of the results.

What follows are compounds tested against DPAP1 (Plasmodium falciparum, UniProt Q8IIJ9) (assay: primary screen, percent inhibition; read by cleavage of a fluorogenic dipeptide substrate; higher = more effect of the substance).
Chain of DPAP1 (Q8IIJ9 whole entry, looked up): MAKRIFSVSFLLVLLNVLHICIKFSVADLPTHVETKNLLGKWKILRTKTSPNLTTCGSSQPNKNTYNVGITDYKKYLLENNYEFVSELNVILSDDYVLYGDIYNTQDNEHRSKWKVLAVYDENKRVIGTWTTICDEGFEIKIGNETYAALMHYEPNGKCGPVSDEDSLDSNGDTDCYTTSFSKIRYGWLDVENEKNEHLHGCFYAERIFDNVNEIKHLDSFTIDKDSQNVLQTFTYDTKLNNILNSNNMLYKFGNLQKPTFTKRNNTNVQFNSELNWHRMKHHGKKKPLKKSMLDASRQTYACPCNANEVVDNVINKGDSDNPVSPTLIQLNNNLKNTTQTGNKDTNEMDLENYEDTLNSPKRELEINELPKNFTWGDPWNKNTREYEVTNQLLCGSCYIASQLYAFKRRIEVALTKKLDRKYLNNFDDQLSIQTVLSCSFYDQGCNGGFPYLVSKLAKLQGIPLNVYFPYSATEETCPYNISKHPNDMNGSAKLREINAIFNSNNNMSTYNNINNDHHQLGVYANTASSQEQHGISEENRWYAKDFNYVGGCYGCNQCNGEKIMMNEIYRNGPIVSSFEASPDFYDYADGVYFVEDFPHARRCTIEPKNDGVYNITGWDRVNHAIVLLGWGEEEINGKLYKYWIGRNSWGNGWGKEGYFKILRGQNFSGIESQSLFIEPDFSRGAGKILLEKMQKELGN
Design: species or system P. falciparum D10 trophozoite lysates; single well
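Also: 30 min substrate incubation versus DMSO and 10 µM JCP410 controls.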

| Compound | % Inhibition @ 10 uM |
| --- | --- |
| CNc1ncnc(S)c1N | -0.615% |
| O=C(NC1(C(F)(F)F)NC(=O)N(Cc2ccccc2)C1=O)c1ccco1 (stereo not drawn) | -4.41% |
| NC(=O)c1ccc(Br)c(S(=O)(=O)N2CCCCC2)c1 | 2.46% |
| Nc1cc(N2CCOCC2)nc(Cl)n1 | 6.6% |
| CC1=C(C(=O)Nc2ccccc2)C(c2ccccc2)n2c(s/c(=C/c3ccco3)c2=O)=N1 (stereo not drawn) | -4.89% |
| COc1ccc(CCNC(C)Cc2ccc(OC)cc2)cc1 (stereo not drawn) | 0.217% |
| O=C(O)C(Cc1c[nH]c2ccccc12)Nc1ncnc2c1oc1ccccc12 (stereo not drawn) | -1.72% |
| Cc1oc(-c2ccc(Cl)cc2)cc1-c1nn2c(-c3ccco3)nnc2s1 | -1.69% |
| CC(=O)Nc1ccc(S(=O)(=O)N(C)c2ccccc2)cc1 | 5.15% |
| CCC1CCCCN1CCCNC(=O)Cn1ccc2cc(S(=O)(=O)N3CCCCC3)ccc21 (stereo not drawn) | -3.12% |
| C=CCN1C(=O)N/C(=C/c2ccc(N3CCOCC3)o2)C1=O | 2.19% |
| O=C(NCCCN1CCCC1)c1cnn2c(C(F)(F)F)cc(-c3ccccc3)nc12 | -4.06% |
| Cc1cc(O)n2nc(-c3ccccc3)cc2n1 | -5.48% |
| CCOc1cc(C(=O)Nc2c(O)oc3ccccc3c2=O)cc(OCC)c1OCC | -5.37% |
| Cc1ccc(CN2CCCCCCC2)o1 | 3.24% |
| CC(NC(=O)C1CC(=O)N(c2ccc(Br)cc2)C1)c1ccccc1 (stereo not drawn) | 1.96% |
| CCOC(=O)C1=C(CN2CC=C(c3ccccc3)CC2)NC(=O)NC1c1ccc(OC(C)C)cc1 (stereo not drawn) | -1.03% |
| Fc1ccccc1CN1CCN(c2ccc(Cl)cc2)CC1 | 3.1% |
| Fc1cccc(CN2CCN(c3ccccc3)CC2)c1 | -3.65% |
| FC(F)(F)c1ccccc1CNCc1ccncc1 | 2.72% |
| O=C(Cn1ncc2c3ccccc3n(Cc3cccc(Cl)c3)c2c1=O)NCc1ccccn1 | 3.4% |
| Cc1ccccc1CN1CCN(c2ncccn2)CC1 | -1.98% |
| OC1CCCN(Cc2cccc(Cl)c2)C1 (stereo not drawn) | -0.127% |
| COc1nc(N2CCCC2)nc(N2CCCC2)n1 | -0.424% |
| Cc1cc(C)n2nc(N)c([N+](=O)[O-])c2n1 | -6.99% |
| Cc1nc(SCC(=O)C2CC2)c(C#N)c(C)c1C | 0.98% |
| COc1ccccc1-c1nc2ccccc2o1 | -0.661% |
| C[C@]12C[C@H](O)[C@@H]3c4ccc(O)cc4CCC3[C@@H]1CCC2=O (stereo partly drawn) | -4% |
| O=C(O)C1CC=CCC1C(=O)Nc1ccccc1Cl (stereo not drawn) | -0.185% |
| CC1CCCC(C)N1C(=O)Nc1cn(C)c(=O)c2ccccc12 (stereo not drawn) | 3.48% |
